Measurements published in PubChem BioAssay AID1347417 (National Center for Advancing Translational Sciences (NCATS), 2020).
The whole screen tested about 120,000 compounds, of which about 5,300 (4.4%) were called active. The shares of active, inactive and inconclusive entries below differ from those in the screen. The call rests on the fitted dose curve; in most records, active means well fitted inhibition curve with a large enough effect; inconclusive means small, poorly fitted or top-dose-only effect; inactive means no such curve, though single readings can be large or run the other way. Potencies of inconclusive entries are doubtful fits and often do not repeat.

Test: qHTS Primary assay for Inhibitors of Plasmodium falciparum Dd2 growth in vitro; further: nearly all actives have a fitted effect of over 65% in size;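 on activity, negative = inhibition: plate controls were DMSO vehicle for no effect and reference drug for full effect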
Conditions: P. falciparum Dd2 growth, SYBR Green, 72 h; activity, negative = inhibition: at 28.9 µM (top of the series) unless noted; series mostly up to 28.9 µM
Summary of the method: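 Infected erythrocytes (Dd2, 0.3% parasitemia, 2.5% hematocrit final) are added to compound in RPMI-1640/Albumax II medium, grown 72 h at 37C in low oxygen, then lysed with saponin/Triton-X containing SYBR Green and read by fluorescence.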
Potency means the concentration at half of the fitted maximal effect; tags describe the fitted curve by direction and shape.

Row | SMILES | activity, negative = inhibition | outcome | Potency
1 | CCn1c(Cn2ccnc2C)nnc1C1CCN(C(=O)C2(N)CC2)CC1 | inactive: 7.82% |  | 
2 | CN(C1CCOCC1)C1CCN(C(=O)c2ccnn2C)CC1 | inactive: 8.07% |  | 
3 | COCc1cc(=O)n(CC(=O)Nc2cccc(SC)c2)c(N2CCOCC2)n1 |  | inactive | 
4 | CNc1nccc(N2CCC(CC(=O)NCCCN3CCOCC3)CC2)n1 |  |  | inconclusive: 17.8 µM [inhibitor, single point]
5 | CCOc1ccc(-c2nc(CSCC(=O)N3CCN(c4cccc(C(F)(F)F)c4)CC3)c(C)o2)cc1 |  |  | inconclusive: 11.2 µM [inhibitor, single point]
6 | O=C(Cc1cccc(Cl)c1)N1CC(c2nc(Cc3ccccc3)no2)C1 | inactive: -11% |  | 
7 | O=[S+]1([O-])NC2(CCCN(Cc3ccc(C(F)(F)F)cc3)C2)CNc2ccccc21 (stereo not given) |  |  | inconclusive: 7.08 µM [inhibitor, partial curve, poor fit]
8 | CCn1nccc1C(=O)NCC1Cn2cccc2C(=O)N1C (stereo not given) |  |  | inconclusive: 0.0631 µM [inhibitor, full curve, poor fit]
9 | O=C(Nc1ccc(Oc2ccccc2)cc1)O[C@@H]1CO[C@H]2[C@@H]1OC[C@@H]2NS(=O)(=O)c1ccc2ccccc2c1 |  |  | inconclusive: 7.94 µM [inhibitor, partial curve, poor fit]
10 | COc1ccccc1CNS(=O)(=O)c1cc(C(=O)Nc2cccc(C(F)(F)F)c2)ccc1F |  |  | inconclusive: 20 µM [inhibitor, single point]
11 | CC(C)COC(=O)/C(C#N)=C\c1ccc(-c2ccccc2Cl)o1 |  |  | active: 1.12 µM
12 | Cc1ccc(-c2cnc([C@@H]3COCCN3C3CCC3)[nH]2)cc1 |  |  | inconclusive: 15.8 µM [inhibitor, single point]
13 | Cc1c(CC(=O)NCCc2ccccc2F)c(=O)oc2c(C)c3occ(C(C)(C)C)c3cc12 |  |  | inconclusive: 10 µM [inhibitor, single point]
14 | Cc1ccc(NC(=O)[C@H]2CCC[C@H]2NC(=O)c2cnc(C)cn2)cc1 | inactive: -22.6% |  | 
15 | COc1cccc(N2CCN(C(=O)c3ccc4c(=O)n(CCc5ccccc5)c(=O)[nH]c4c3)CC2)c1 |  |  | inconclusive: 11.2 µM [inhibitor, partial curve]
16 | CCN(C(=O)CCC(=O)N1CCc2nc3cc(-c4ccc(OC)cc4)[nH]n3c(=O)c2C1)c1ccccc1 |  |  | inconclusive: 0.316 µM [inhibitor, full curve, poor fit]
17 | O=c1[nH]c(C2CCCN(Cc3cccc(-c4ccc(F)cc4F)c3)C2)nc2ccc(F)cc12 (stereo not given) |  |  | inconclusive: 17.8 µM [inhibitor, single point]
18 | O=C(Cc1ccccc1)N1CCC2(CCCN(C3CCOCC3)C2=O)C1 (stereo not given) | inactive: 0.296% |  | 
19 | CCOC(=O)c1c(C)n(-c2ccccc2)c2ccc(OC(=O)c3ccccc3)cc12 |  |  | active: 2.82 µM
20 | Cc1ccc(CN2CC(Oc3ccccc3C(=O)NCc3ccccc3)C2)o1 |  |  | inconclusive: 3.55 µM [inhibitor, partial curve, poor fit]
21 | Cc1cccc(-c2noc(CN(C(=O)COc3ccc(C(C)C)cc3)C(C)C)n2)c1 |  |  | inconclusive: 17.8 µM [inhibitor, single point]
22 | Cc1ccc(C)c(CSc2nc3ncccc3[nH]2)c1 |  |  | inconclusive: 17.8 µM [inhibitor, single point]

Row | SMILES | activity, negative = inhibition | outcome | Potency
23 | O=C1CC(c2ccccc2)N(Cc2ccncc2)CCCN(C(=O)c2ccco2)CCN1 (stereo not given) |  |  | inconclusive: 10 µM [inhibitor, single point]
24 | Cc1cccc(N2C(=O)CSC23C(=O)N(Cc2cccc(F)c2)c2ccccc23)c1 (stereo not given) |  |  | inconclusive: 12.6 µM [inhibitor, single point]
25 | O=c1[nH]c(N2CCOCC2)nc2c1CCN(Cc1ccc(C(F)(F)F)cc1)CC2 |  |  | active: 1.26 µM
26 | CN1CCN(C(CNC(=O)C(=O)Nc2ccccc2)c2ccc3c(c2)OCO3)CC1 (stereo not given) |  |  | inconclusive: 17.8 µM [inhibitor, single point]
27 | O=C(Cc1n[nH]c(=O)c2ccccc12)NC1CCCc2c1[nH]c1c(Cl)cccc21 (stereo not given) |  |  | inconclusive: 11.2 µM [inhibitor, partial curve]
28 | O=C(c1ccc(CN2C(=O)NC3(CCS(=O)(=O)CC3)C2=O)cc1)N1CCSCC1 | inactive: -1.66% |  | 
29 | CNC(=O)[C@@H]1C[C@H](Oc2cccnc2)CN1C(=O)c1ccc(OC)cc1OC | inactive: 1.85% |  | 
30 | COc1cccc(N2CCN(S(=O)(=O)c3cc(Br)cc4c3N(C(=O)C3CC3)CC4)CC2)c1 |  |  | inconclusive: 17.8 µM [inhibitor, single point]
31 | Clc1ccccc1C1(c2ccnc(NCCc3ccncc3)n2)CCNCC1 |  |  | inconclusive: 14.1 µM [inhibitor, partial curve]
32 | O=C(N[C@@H]1COCC[C@@H]1Oc1ccc(F)cc1)c1cnc(C2CC2)nc1 | inactive: -6.98% |  | 
33 | CN1CCN(C(=O)[C@@H]2CCC[C@@H](NC3CCOCC3)CN(C)C(=O)C2)CC1 | inactive: 34.6% [at 44.1 µM] |  | 
34 | COc1ccc(N2CCN(C(=O)c3ccc(N4CC5CC(C4)[C@H]4CCCC(=O)N4C5)nc3)CC2)cc1 (stereo not given in full) | inactive: -13.4% |  | 
35 | CCn1ncc(C(=O)N2C[C@@H](COc3ccccc3)[C@H](C(N)=O)C2)c1C | inactive: -5.13% |  | 
36 | COc1ccc(NC(=O)CSc2ncc3c(n2)-c2cc(Cl)ccc2N(Cc2ccccc2F)S3(=O)=O)cc1 |  |  | inconclusive: 11.2 µM [inhibitor, single point]
37 | Cc1cccc(CSc2ncc(CO)n2Cc2ccc(F)cc2)c1 |  | inactive | 
38 | CCCCCC(=O)N1CCC(O)(c2csc(CN(CC)CC)n2)CC1 | inactive: -4.46% [at 44.1 µM] |  | 
39 | CC(C)c1ccc(CNC(=O)c2cc3n(n2)CC(c2ccc4c(c2)OCO4)OC3)cc1 (stereo not given) | inactive: -5.9% |  | 
40 | Cc1ccc(Cl)cc1N1CCN(S(=O)(=O)c2ccc3[nH]c4c(c3c2)CCCCC4)CC1 |  |  | inconclusive: 17.8 µM [inhibitor, single point]
41 | COc1cccc(CNC(=O)c2ccc(CSc3nc4ccncc4n3Cc3cccc(C)c3)cc2)c1 |  |  | active: 3.16 µM
42 | Cc1ccc2c(c1)N(CCC(=O)NCc1ccc(F)cc1)C(=O)CO2 | inactive: 13% |  | 
43 | CCC1CCCCN1CCNC(=O)c1cc2c(s1)CN(C1CCCC1)C2 (stereo not given) |  |  | active: 6.31 µM
44 | CCn1c2c(c(=O)n1Cc1ccccc1)CCN(C(=O)c1ccc(Oc3ccccc3)cc1)C2 |  |  | inconclusive: 14.1 µM [inhibitor, single point]

Row | SMILES | activity, negative = inhibition | outcome | Potency
45 | CCOC(=O)c1c(NC(=O)CSc2cn(CCNC(=O)c3ccccc3F)c3ccccc23)sc2c1CCC2 |  |  | inconclusive: 10 µM [inhibitor, single point]
46 | O=C(Nc1ccc2nc(SCC(=O)N3CCCc4ccccc43)sc2c1)c1cccc(F)c1 |  |  | inconclusive: 12.6 µM [inhibitor, single point]
47 | CCNC(=O)c1coc(COc2ccc3c(c2)C(c2cccc(C)c2)N(C(=O)C2CC2)CC3)n1 (stereo not given) |  |  | inconclusive: 8.91 µM [inhibitor, partial curve, poor fit]
48 | CN(C)S(=O)(=O)N1CCOC(c2ccc(Cl)c(Cl)c2)C1 (stereo not given) |  |  | inconclusive: 20 µM [inhibitor, single point]
49 | COc1cccc(NC(=O)CSc2nc3c(oc4ccccc43)c(=O)n2Cc2ccco2)c1 |  |  | inconclusive: 11.2 µM [inhibitor, single point]
50 | Nc1ccccc1CN1CCCC2(Cc3ccccc3CNC2=O)C1 (stereo not given) |  |  | inconclusive: 20 µM [inhibitor, single point]
51 | O=C(CCSc1nc(-c2ccco2)cc(C(F)(F)F)n1)Nc1cccc(O)c1 |  |  | inconclusive: 2 µM [inhibitor, full curve, poor fit]
52 | Cc1nc(NCC2CC2)ncc1C(=O)O | inactive: 11.6% |  | 
53 | CN1CCC(N2CC[C@@H](CO)N(C)c3cccnc3C2)CC1 | inactive: 13.9% [at 44.1 µM] |  | 
54 | O=C1NCc2ccccc2CC12CCCN(Cc1cccc(OC(F)(F)F)c1)C2 (stereo not given) |  |  | inconclusive: 8.91 µM [inhibitor, single point]
55 | O=C(COc1ccc(-c2nnc3n2CCCC3)cc1)Nc1cccc(F)c1 |  |  | inconclusive: 3.55 µM [inhibitor, full curve]
56 | Cc1ccc(-c2nc3cc(C(C)C)ccc3o2)cc1NC(=O)c1cc2ccccc2o1 |  |  | inconclusive: 17.8 µM [inhibitor, single point]
57 | Cc1ccc(OCC(=O)Nc2ccc(S(=O)(=O)Nc3cc(C)nc(C)n3)cc2)c(Br)c1 |  |  | inconclusive: 20 µM [inhibitor, partial curve, poor fit]
58 | COc1ccc(C2=CC(c3ccc(F)cc3)n3ncc(C(=O)Nc4ccc(C)cc4)c3N2)cc1 (stereo not given) |  |  | inconclusive: 1.41 µM [inhibitor, full curve]
59 | Cc1ccc(CN2CCc3nc(N4CCN(c5ncccn5)CC4)ncc3C2)cc1 |  |  | inconclusive: 6.31 µM [inhibitor, partial curve, poor fit]
60 | NCC(=O)NC1CC2(CCN(C(=O)Cc3ccc(O)cc3)CC2)c2ccccc21 (stereo not given) | inconclusive: -140% [inhibitor] |  | 
61 | CCOC(=O)C1CCN(c2ncnc3c2c(-c2ccccc2)cn3-c2cccc(C)c2)CC1 |  |  | inconclusive: 7.08 µM [inhibitor, partial curve, poor fit]
62 | NCc1ccccc1-c1ccsc1 |  |  | inconclusive: 12.6 µM [inhibitor, partial curve, poor fit]
63 | COc1cc(-c2ccnc3nc(-c4cccs4)nn23)cc(OC)c1OC |  |  | inconclusive: 2.82 µM [inhibitor, full curve]
64 | Cc1ccc(Cn2c(C(=O)O)c(CNCc3ccccc3Cl)c3ccc(C)cc32)cc1 |  |  | inconclusive: 3.16 µM [inhibitor, single point]
65 | CN(C)CC1(O)CCC2(CCN(C(=O)CCC3CCCC3)CC2)CC1 |  |  | inconclusive: 7.08 µM [inhibitor, partial curve, poor fit]
